Among the data in PubChem BioAssay (NCI) are GI50 and TGI values, retold here.

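Grown in 96-well plates, cells were treated for 48 hours with each compound at five concentrations. Insufficient inhibition: endpoint recorded as highest concentration tested. GI50 is the concentration that inhibits growth by half. The concentration for full growth arrest is given as TGI.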

The subject of the test is NCI-H322M lung. The experiment in a line: growth of human tumour cells (NCI), 48 h.
`COc1ccccc1S(=O)(=O)Nc1ccc2c3c(cc(CCC(=O)NCCCCNc4cccc5c4C(=O)N(C4CCC(=O)NC4=O)C5=O)cc13)C(=O)N2C` (stereo unspecified): the GI50 is 0.415 µM and the TGI was more than 100 µM. `COc1ccc2oc3c(OC)c(OC)c(OC)cc3c(=O)c2c1` displayed a TGI of more than 100 µM.

`Cc1ccc(NC(=O)C(=O)CC(=O)c2c(C)n([O-])c3ccccc3[n+]2=O)cc1C` showed a TGI of more than 100 µM. Turning to `O=C(CN(/C=C/C(=O)C(F)(F)F)c1ccc(Cl)cc1)c1ccc(Cl)c(Cl)c1`, the GI50 was 11 µM and the TGI was 22.9 µM. The compound `COC1=CC(C2c3cc4c(cc3[C@@H](Nc3ccc(F)cc3)C3COC(=O)[C@H]23)OCO4)=CC(=O)C1=O` (stereo partly specified) registered a TGI of more than 92.7 µM. Still for that read-out and setting: in the case of `C[C@H](C1CC2(C)OC2(C)C(=O)O1)[C@H]1CC[C@H]2[C@@H]3[C@@H]4O[C@@H]4[C@@]4(O)CC=CC(=O)[C@]4(C)[C@H]3CC[C@]12C` (stereo partly specified) it was more than 50 µM. On the same count and under the same terms, the same measure for `COc1ccccc1NC(=O)C1=C(C)NC(C)=C(C(=O)Nc2ccccc2OC)C1/C=C/c1ccccc1`: more than 100 µM. On to `CS(=O)(=O)Nc1cccc(-c2ccc3ncnc(Nc4ccc(F)c(Cl)c4)c3c2)c1`, for which the GI50 is 0.0486 µM and the TGI worked out at 4.79 µM. Take `CCN(CC)C(=O)Cn1c2c(c3ccccc31)CCCC2`: the TGI is more than 100 µM. On the same count and under the same terms, in the case of `C1CCCCc2nc3c(nc2CCC1)c1nc2c(nc1c1nc4c(nc31)CCCCCCCC4)CCCCCCCC2` it was more than 100 µM; in that of `CCOC(=O)Nc1ccc(S(=O)(=O)Nn2cnnc2)cc1`, more than 100 µM. Take `CCCCN(C)/N=N/c1nc[nH]c1C(N)=O`: the TGI was more than 100 µM.

`O=c1c2nc(-c3ccccc3)oc2n(-c2ccccc2)c(=O)n1-c1ccccc1`: the TGI was more than 46.4 µM. With `COC(=O)c1c(-c2cccs2)oc(-c2cccs2)c1C(=O)OC`, the GI50 was 55.8 µM and the TGI is more than 100 µM. In the case of `Cc1ccccc1NC(=O)CC(=O)NNC(Sc1ccccc1)c1cc(N=Nc2ccc(Br)cc2)ccc1O` (stereo unspecified), the TGI was more than 10 µM. `CC1=C(SC#N)S(=O)(=O)N(c2ccccc2)C(C)=C1SC#N` yielded a TGI of more than 100 µM.

`Cc1cc(-c2c(F)cc3c4nn([C@H]5CC[C@@H](N(C)C)CC5)c(=O)c-4cn(C4CC4)c3c2F)cc(C)n1` yielded a TGI of 5.94 µM. Still for that read-out and setting: in the case of `CC1(C)C=C(/C=N/Nc2ccccc2)C(C#N)=C(O)C1(C#N)C#N` it was more than 100 µM; in that of `Cc1cccc(C(=O)O)c1C(=O)c1cccc2ccccc12`, more than 100 µM.

Turning to `C#CCOC(=O)c1ccc(OC(C)=O)cc1`, the TGI is more than 100 µM. `CCCCCCCC1(c2ccc(N)cc2)CCC(=O)NC1=O` (stereo unspecified) came in with a TGI of more than 100 µM. On the same count and under the same terms, in the case of `O=C(O)/C(Cc1ccnc2ccccc12)=N\O` it was more than 100 µM; in that of `Oc1ccc(Oc2cc3c(cc2Oc2ccc(O)cc2)-c2nc-3nc3[nH]c(nc4nc(nc5[nH]c(n2)c2cc(Oc6ccc(O)cc6)c(Oc6ccc(O)cc6)cc52)-c2cc(Oc5ccc(O)cc5)c(Oc5ccc(O)cc5)cc2-4)c2cc(Oc4ccc(O)cc4)c(Oc4ccc(O)cc4)cc32)cc1`, more than 100 µM; in that of `CSc1cnc2ccccc2c1Sc1c[nH]c2ccccc2c1=O`, 43.3 µM. `Cc1ccc2nc(NC(=O)C(=O)C(C#N)c3ccc(Cl)cc3)sc2c1` (stereo unspecified) returned a TGI of more than 50 µM.

As to `NC(=O)c1ccc(Oc2nccc(-c3c(-c4ccc(F)cc4)ncn3C3CCNCC3)n2)cc1`, the GI50 is more than 25 µM and the TGI is more than 25 µM. Regarding `Clc1cc(Cl)ncn1`, the TGI is more than 100 µM. In turn, `Cc1nc(Nc2ccccc2Cl)sc1C(=O)CC(=O)C(N)=O` came in with a TGI of more than 100 µM. Same read-out and setting: in the case of `Nc1nc2c(C(=O)NCc3cccs3)nnn2c2cccc(Cl)c12` it was more than 100 µM. `O=C(OCc1ccccc1)N1CCNCCNCCN(C(=O)OCc2ccccc2)CCNCC1`: the TGI turned out to be 39.5 µM. The same measure, in the same setting: the same measure for `N/C(=N\N=C\c1ncccc1O)NO`: more than 100 µM.

`Cc1ccc(C)c(N2C(=O)C(=O)C(c3nc4ccccc4o3)C(=O)C2=O)c1` returned a TGI of more than 100 µM. With `CCC(C)CC(C)CC(C)/C=C(\C)C1=C(C)CC(C)(O)O1` (stereo unspecified), the TGI is more than 100 µM.

Regarding `CN(C)CCCn1c(=O)c2ccccc2c2cnc3[nH]ccc3c21`, the GI50 was 1.83 µM and the TGI was found to be 13.2 µM. For `COc1ccc(-c2nc(-c3nc4ccc(C)cc4[nH]3)cc3c2[nH]c2ccccc23)cc1`, the GI50 was 5.32 µM and the TGI is more than 100 µM. The corresponding values for `CCCCCC(O)C(O)CCC[C@H](O)[C@H]1CC[C@H]([C@H]2CC[C@H]([C@H](O)CCCCCCCCCCCCC3=C[C@H](C)OC3=O)O2)O1` (stereo partly specified) are 13.1 µM and 30 µM. In the case of `CC(=O)N1CCN(CCNC(=O)n2cc(-c3ccncc3)c(-c3cc(O)cc(Cl)c3)n2)CC1`, the GI50 was 18.1 µM and the TGI was 53.9 µM.

Compound `Cc1cc(-c2nc3cccc(O)c3s2)ccc1N` yielded a TGI of more than 100 µM. For the compound `CC(=O)C(C)(C)CCC(C)(C)C(C)=O`, the TGI is more than 100 µM. Still for that read-out and setting: the same measure for `C=C1CC(C)(c2cccc(Nc3nc4ccccc4c4occc34)c2)OC1=O` (stereo unspecified): 49.5 µM. Still for that read-out and setting: in the case of `N#CC(C(=O)CCCC(=O)Nc1ccc(Cl)cc1Cl)c1ccccc1` (stereo unspecified) it was more than 100 µM. Same read-out and setting: the same measure for `CCCCCCCCOc1ccc(/C=C/C2=[N+](CCO)CCO2)cc1`: 22.4 µM; for `Cc1cc(S(=O)(=O)/N=C(/NN)Nc2ccc(Cl)cc2)c(S)cc1Cl`: 34.7 µM. With `C=C1C(O)C2CC(C)(CO)C(=O)C2=C(CC(C)C)C12CC2` (stereo unspecified), the GI50 is 69.4 µM and the TGI is more than 100 µM. Turning to `Cc1cc(N(CCOS(C)(=O)=O)CCOS(C)(=O)=O)ccc1C(=O)O`, the GI50 was more than 100 µM and the TGI was more than 100 µM. As for `CCOC(=O)/C(=C/c1cccc(Cl)c1)N(CC)CC`, the TGI was more than 100 µM. On the same count and under the same terms, in the case of `COC(=O)Nc1nc2ccc(NC(=O)c3ccc(I)cc3)cc2[nH]1` it was more than 100 µM. Turning to `CC(C)CCOC(=O)NC(Nc1ccc(F)cc1)(C(F)(F)F)C(F)(F)F`, the TGI is more than 100 µM.

As for `OC(NN=C1CCCC1)(C(F)(F)Cl)C(F)(F)Cl`, the TGI was more than 10 µM.

Regarding `O=c1[nH]c(=O)n(C2OC(CO)C(O)C2O)cc1OCCCc1ccccc1` (stereo unspecified), the TGI was more than 100 µM. In turn, `O=C(O)c1cccc(NC(C(=O)c2ccccc2)c2ccccc2)c1` (stereo unspecified) gave a TGI of more than 100 µM. On the same count and under the same terms, in the case of `O=C(C(=O)n1ncc(Cl)c(Cl)c1=O)n1ncc(Cl)c(Cl)c1=O` it was more than 100 µM. Turning to `O=C1NC(N2CCOCC2)=N/C1=C\c1ccc(O)cc1`, the TGI was more than 100 µM. For the compound `O=C(NCC(F)(F)F)Nc1cccc(-c2cnc3cc(-c4ccc(F)cc4)ccn23)c1`, the GI50 was 4.5 µM and the TGI was more than 69.4 µM. In the same order, the values of `CCCCCCSSC(=S)N(CC)CC` are 29.8 µM and more than 100 µM. In the same order, the values of `CCCCC#Cc1c(I)n(C)c(=O)[nH]c1=O` are 11.8 µM and 24.1 µM. For `Cc1nc(-c2cc3ccccc3oc2=O)cs1`, the TGI is more than 100 µM.
